# Measured values from PubChem BioAssay AID686979 (National Center for Advancing Translational Sciences (NCATS), 2013).
# “And” between values parts separate entries of the source, which are not always exact repeats. Equal values may be shown once. The campaign covered roughly 420,000 compounds. About 50,000 (12%) were called active. The inconclusive results got no clear call from the source; some entries with a clear call stand among them for comparison. Calls come from the whole dose curve; as a rule, active = well fitted inhibition curve with a large enough effect; inconclusive = small, poorly fitted or top-dose-only effect; inactive = flat fitted curve, though single readings scatter. Potencies of inconclusive entries are doubtful fits and often do not repeat.
# Assay: qHTS for Inhibitors of human tyrosyl-DNA phosphodiesterase 1 (TDP1): qHTS in cells in presence of CPT; note: nearly all actives have a fitted effect of over 55% in size
# Details: chicken DT40 Tdp1-/-;hTDP1 cells + 20 nM CPT, ATP luminescence, 48 h; activity change, negative = growth inhibition: at 46.2 µM (top of the series)
# In short: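 Chicken DT40 Tdp1-/- cells complemented with human TDP1, 400 cells/well, exposed to compounds plus 20 nM camptothecin for at least 48 h at 37 C; viability read as ATP content by CellTiter-Glo luminescence.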
# % is set by controls: 0 for no effect and ±100 for the full control effect; potency is the fitted concentration of half-maximal effect; tags give direction and shape of the fitted curve.
SMILES,Potency,"activity change, negative = growth inhibition"
Cc1nn(-c2ccccc2)c(Cl)c1C(=O)N(C)CC(=O)Nc1cccc(F)c1,"inconclusive: 20.6 µM [inhibitor, single point]",
O=C(C1CCCCC1)N1CCN(S(=O)(=O)c2ccc(Cl)cc2)CC1,"inconclusive: 25.9 µM [inhibitor, single point]",
O=C(O)c1cccc(NC(=O)C2C3C=CC(C3)C2C(=O)OCC(F)(F)C(F)F)c1 (stereo unspecified),,inactive: 5.22%
O=C(Cc1ccccc1)Nc1ccc(N2CCCCC2)cc1,"inconclusive: 29.1 µM [inhibitor, single point]",
COc1ccccc1OCC(=O)NC1CC(C)(C)NC(C)(C)C1,,inactive: 8.44%
Cc1ccc(-c2cc(C(=O)N3CCN(C(=O)c4ccco4)CC3)no2)cc1,,inconclusive: -33.8% [inhibitor]
Cc1ccc([C@H]2C[C@@H](n3cc(COC(=O)c4ccccc4)nn3)[C@H](O)CN2C(=O)C2CCCCC2)cc1,"inconclusive: 29.1 µM [inhibitor, single point]",
CCOC(=O)c1cc(CC)sc1NC(=O)C1CC1,"inconclusive: 20.6 µM [inhibitor, single point]",
COc1ccc(-c2noc(-c3cccc(OC)c3OC)n2)cc1OC,"inconclusive: 20.6 µM [inhibitor, partial curve]",
CC(C)c1ccc(NC(=O)c2cc(S(=O)(=O)NCc3ccccc3Cl)ccc2F)cc1,active: 6.51 µM,
COc1ccc(C(=O)NCc2ccccc2C)cc1S(=O)(=O)NC1CCCC1,,inactive: -4.79%
COc1cccc(COC(=O)CSCC(=O)Nc2ccc(C)cc2)c1OC,,inconclusive: -0.873% [inhibitor]
COc1ccc(C)cc1NC(=O)Cn1c(=O)ccc2cc(S(=O)(=O)N3CCCC3)ccc21,active: 20.6 µM,
CN(CCc1ccccc1)C(=O)c1ccc(NC(=O)Cc2ccc(NC(=O)C3CCN(S(=O)(=O)c4cccc([N+](=O)[O-])c4)CC3)cc2)cc1,"inconclusive: 23.1 µM [inhibitor, partial curve]",
Cc1ccc(C(=O)OCC(=O)Nc2ccc3c(c2)OCO3)o1,"inconclusive: 29.1 µM [inhibitor, single point]",
CCOc1cc(C(=O)N2CCc3c([nH]c4ccccc34)C2c2ccccc2)cc(OCC)c1OCC (stereo unspecified),active: 6.51 µM,
COC(=O)C1CC(C(=O)OC)C2C(C(=O)OC)CC(C(=O)OC)C12 (stereo unspecified),,inactive: 4.11%
N#Cc1c[nH]n2c(NC3CCCC3)c(-c3cccc(Cl)c3)nc12,"inconclusive: 29.1 µM [inhibitor, single point]",
Cc1ccc2c(Cl)cc(Cl)c(OCC(=O)NCCc3ccccn3)c2n1,"inconclusive: 16.4 µM [inhibitor, single point]",
CCOC(=O)C1CCN(C(=O)c2cccc(S(=O)(=O)N3CCc4ccccc43)c2)CC1,"inconclusive: 29.1 µM [inhibitor, single point]",
O=C(CSc1nnnn1C1CCCC1)Nc1ccc(F)cc1,,inactive: -15.1%
O=C(COC(=O)c1ccc(Cl)c(Cl)c1)NC1CCCC1,,inactive: -22.6%
Cc1noc(C)c1S(=O)(=O)N1CCC(C(=O)N2CCN(c3ccc(Cl)cc3)CC2)CC1,"inconclusive: 18.4 µM [inhibitor, partial curve]",
COc1ccc(OC)c(N(CC(=O)Nc2ccccc2)S(=O)(=O)c2ccccc2)c1,"inconclusive: 16.4 µM [inhibitor, single point]",

SMILES,Potency,"activity change, negative = growth inhibition"
Cc1ccc(S(=O)(=O)N2CCN(c3ccc(C(F)(F)F)cc3[N+](=O)[O-])CC2)cc1,"inconclusive: 29.1 µM [inhibitor, single point]",
Cc1cccc(CCN2CCN=C2Nc2ccccc2)c1,"inconclusive: 20.6 µM [inhibitor, partial curve]",
COC(=O)c1c(CCl)noc1C(=O)NC(C)C,"inconclusive: 23.1 µM [inhibitor, single point]",
COC(=O)C1(C(=O)OC)C[C@H](/C=C/c2ccccc2)N(Cc2ccccc2OC)[C@@H]1c1ccccc1,"inconclusive: 23.1 µM [inhibitor, single point]",
COC(=O)c1ccc2nc(-c3ccccc3)c(Cc3ccccc3OC)n2c1,active: 18.4 µM,
N#Cc1cn(-c2ccccc2)nc1-c1cc2ccccc2oc1=O,"inconclusive: 16.4 µM [inhibitor, single point]",
COc1cc(/C=N/n2cnnc2)ccc1Oc1nc(Cl)ncc1F,active: 16.4 µM,
COc1ccccc1-n1c(/C=C/c2c(C)n(C)c3ccccc23)nc2ccccc2c1=O,"inconclusive: 29.1 µM [inhibitor, single point]",
Cc1cc(OCC(=O)Nc2ccncc2)ccc1Br,"inconclusive: 25.9 µM [inhibitor, single point]",
CCOC(=O)c1ccccc1NC1c2ccccc2C(=O)N1c1ccc(C)cn1 (stereo unspecified),"inconclusive: 25.9 µM [inhibitor, single point]",
Cc1ccc(CSc2nc(-c3ccccc3)c(C#N)c(=O)[nH]2)cc1,,inactive: 4.01%
CC(=O)c1ccc(OCC(O)CN2CCN(S(=O)(=O)c3c(C)cc(C)cc3C)CC2)cc1 (stereo unspecified),"inconclusive: 18.4 µM [inhibitor, single point]",
CCCNc1nc(Nc2ccc(C)c(Cl)c2)c2cnn(C)c2n1,active: 16.4 µM,
CCc1ccc(Sc2cc(C(=O)NC(C)CC)c3ccccc3n2)cc1 (stereo unspecified),active: 16.4 µM,
OC(CN1CCN(c2ccccc2)CC1)Cn1c2ccccc2c2ccccc21 (stereo unspecified),active: 18.4 µM,
O=C1c2cnc3nc(SCc4ccccc4)nn3c2CC2c3ccccc3CCN12 (stereo unspecified),"inconclusive: 2.59 µM [inhibitor, partial curve]",
COc1ccc(-c2noc(CSc3nnc(-c4ccncc4)n3-c3ccc(C)cc3)n2)cc1,"inconclusive: 20.6 µM [inhibitor, single point]",
Cc1cccc(NC(=O)c2cc3n(n2)C(C(F)(F)F)CC(C2CC2)N3)c1C (stereo unspecified),,inactive: 5.34%
CN(C)CCNc1ncnc2c1sc1nc(N3CCOCC3)c3c(c12)CC(C)(C)SC3,"inconclusive: 20.6 µM [inhibitor, single point]",
CCC1([N+](=O)[O-])COC(c2ccc(C)cc2)OC1 (stereo unspecified),,inactive: -10.3%
COCCN(C(=O)CCc1nnc(CCc2c[nH]c3ccccc23)o1)C(C)C,,inactive: -12%
COc1cc(OC)cc(C(=O)Nc2cccc3cccnc23)c1,"inconclusive: 29.1 µM [inhibitor, single point]",
COc1cccc(C(O)c2nc(-c3ccccc3)cs2)c1 (stereo unspecified),"inconclusive: 25.9 µM [inhibitor, single point]",
O=C(Nc1ccc(N2CCCCC2)cc1)c1cncc(Br)c1,"inconclusive: 16.4 µM [inhibitor, partial curve, poor fit]",

SMILES,Potency,"activity change, negative = growth inhibition"
O=C(Cc1ccc(NC(=O)C2CCN(C(=O)C3CCC3)CC2)cc1)Nc1ccc(C(=O)N2CCOCC2)cc1,,inactive: 8.15%
O=C(NCc1cccnc1)C1CC(c2ccc(F)cc2)=NO1 (stereo unspecified),,inactive: 5.57%
Cc1cccc(Nc2c(O)nc[nH]c2=O)c1,,inactive: -14.5%
Cc1nc(N2CCN(c3ccccc3)CC2)nc2c1C(=O)CCC2,,inconclusive: -34.2% [inhibitor]
CCCn1c(N)c(N(CCOC)C(=O)c2cc(S(=O)(=O)N3CCCCCC3)ccc2OC)c(=O)[nH]c1=O,,inconclusive: -17.2% [inhibitor]
COCCn1c(=S)[nH]c2cc(C(=O)N3CCCC(C)C3)ccc2c1=O (stereo unspecified),active: 25.9 µM,
O=S(=O)(c1ccccc1F)N1CCN(c2nc(-c3cccs3)nc3ccccc23)CC1,"inconclusive: 25.1 µM [inhibitor, single point] and inconclusive: 15.8 µM [inhibitor, single point]",
CC(Oc1ccc(Cl)cc1Cl)c1nc(-c2ccc(NC(=O)c3cccnc3)cc2)no1 (stereo unspecified),active: 5.8 µM,
S=C(NCCc1ccccc1)NCc1ccccc1Cl,"inconclusive: 20.6 µM [inhibitor, single point]",
CN(CCCC(=O)NCc1ccccc1)S(=O)(=O)c1ccc([N+](=O)[O-])cc1,"inconclusive: 14.6 µM [inhibitor, single point]",
CSCCC(NC(=O)c1cccc(C)c1)C(=O)NNC(=O)c1cccs1 (stereo unspecified),,inactive: -3.39%
COc1ccc(-c2nc(S(=O)(=O)c3ccccc3)c(N3CCCC3)o2)cc1,,inactive: -0.673%
COCCN(C(=O)CCC(=O)Nc1nccs1)C(C(=O)NC(C)(C)C)c1ccc(C)cc1 (stereo unspecified),,inactive: 3.67%
COc1ccc(C(c2c(O)ccc3ccccc23)N2CCOCC2)c(OC)c1 (stereo unspecified),"inconclusive: 29.1 µM [inhibitor, single point]",
O=C(c1ccc(C(F)(F)F)cc1)C1CCCN(C(=O)CCc2ccncc2)C1 (stereo unspecified),active: 8.2 µM,
CCN1C(=O)N[C@H](c2ccccc2)C(C(C)=O)=C1C,,inactive: -4.96%
CCOc1ccc(CN2CCN(Cc3cccc4c3OCO4)CC2CCO)cc1 (stereo unspecified),"inconclusive: 11.6 µM [inhibitor, single point]",
COc1cccc(CNC(=O)C2CCC(CNS(=O)(=O)c3ccc(Br)s3)CC2)c1 (stereo unspecified),active: 23.1 µM,
Nc1sc(Cc2ccccc2)cc1C(=O)NC1CCCCC1,"inconclusive: 18.4 µM [inhibitor, single point]",
Cc1cc(NC(=O)c2ccccc2F)n(-c2nc3ccccc3[nH]2)n1,"inconclusive: 16.4 µM [inhibitor, single point]",
O=C(CCN1CCc2ccccc2C1)Nc1ccccc1,,inactive: 0.669%
CN1CCN(c2ncnc3scc(-c4ccccc4Cl)c23)CC1,"inconclusive: 11.6 µM [inhibitor, partial curve]",
O=C(Nc1c(C(=O)N2CCN(c3ccccn3)CC2)oc2ccccc12)c1cccc([N+](=O)[O-])c1,"inconclusive: 8.2 µM [inhibitor, partial curve]",
